Results taken from patent US8158586B2, “Inhibitors of protein kinases and uses thereof” (priority 2005, dated 2012).
Several values for one entry are separate records, joined by “and”; a condition that tells them apart may be missing. Equal entries are not always repeated. At least one structure is not confirmed: it was looked up by name or label, or the drawing left a doubt. Some compounds share one wording; it may come from a single statement. Residues, ends and D or L forms follow the SMILES beside them. *: point of attachment. PNA(A) = NCCN(CC(=O)*)C(=O)Cn1cnc2c(N)ncnc21

Experiments:
STAT-3 = STAT-3 phosphorylation (Ser727, Tyr 705) in IL-6 treated U-251 cells, immunocytochemistry; assay type: cell-based, human; details: 5 mM loading
pERK1/2 = pERK1/2 in serum-stimulated IMR-32 neuroblastoma cells, immunofluorescence (indirect MEK1/2); assay type: cell-based, human; details: 5 mM loading, control stimulated 105.3, control starved 59.5
Bcl-2 = assay: Bcl2 sublocalization, immunolabelling; assay type: cell-based
[1] = system: H-661 non-small cell lung cancer cell line; assay: Cell death at 24 h after pinocytic loading, H661; assay type: cell-based
[2] = system: MCF-7 breast cancer cell line; assay: Cell death at 24 h after pinocytic loading, MCF-7; assay type: cell-based
[3] = system: MDA-MB-231 breast cancer cell line; assay: Cell death at 24 h after pinocytic loading, MDA-MB-231; assay type: cell-based
[4] = system: SKOV-3 ovarian cancer cell line; assay: Cell death at 24 h after pinocytic loading, SKOV-3; assay type: cell-based
[5] = system: LNCap prostate cancer cell line; assay: Cell death at 24 h after pinocytic loading, LnCAP; assay type: cell-based
[6] = system: DU-145 prostate cancer cell line; assay: Cell death at 24 h after pinocytic loading, Du145; assay type: cell-based
[7] = system: T-24 bladder cancer cell line; assay: Cell death at 24 h after pinocytic loading, T24; assay type: cell-based
[8] = system: IMR-32 neuroblastoma cell line; assay: Cell death at 24 h after pinocytic loading, IMR32; assay type: cell-based, human
[9] = system: LS-180 colon cancer cell line; assay: Cell death at 24 h after pinocytic loading, LS180; assay type: cell-based
[10] = system: U-251 glioblastoma cell line; assay: Cell death at 24 h after pinocytic loading, U251; assay type: cell-based, human
MDA-MB-231 cells = assay: Invasion of MDA-MB-231 cells through Matrigel matrix; assay type: cell-based
[11] = system: PKCα expression in H-661 NSCLC cells; assay: Expression of PKCα in H-661 cells, flow cytometry; assay type: cell-based; details: 5 μM
Description: The effect of compounds 1 to 10 on doxorubicin-induced expression of PKCα in LS180 colon cancer cells and H-661 NSCLC cells was investigated. Cells were exposed to doxorubicin (50 ng/mL) for 3 days prior to exogenous treatment with the PKI compounds at a concentration of 5 μM. Results were acquired by flow cytometry after labelling of the cells with the PKC-alpha #sc 208 antibody.
(§1) The protocol used for fixing the cells for flow cytometry is as follows. A minimum of 1.0×10^6 cells was used in each instance. Cells were trypsinized and spun down at 1,000/5 min at 4° C. All the medium was removed and the cells resuspended in 500 μl of 1×PBS, pH 7.1. The cell suspension was added into 5 mls of 1% paraformaldehyde/PBS on ice and fixed for 15 min on ice. Cells were then centrifuged at 1,000/5 min and resuspended in 10 mls of 1×PBS. Cells were centrifuged again at 1,000/5 min and resuspended in 2 mls of 70% ETOH and kept at −20° C. until needed (up to 1 week). At which time, 2 mls of 1×PBS containing 1% BSA/0.02% NaN3 was added to each tube and the cells were left on ice for 5 min to give the cells time to rehydrate. Cells were then centrifuged at 1,000/5 min and the ETOH/PBS mix removed. The cells were resuspended in 5 mls of 1×PBS and allowed to sit on ice for 5 min. This step was repeated once, then the cells were centrifuged at 1,000/5 min and resuspended in 1 ml of 1×PBS containing 1% BSA/0.02% NaN3 and 5% serum. Blocking was conducted for 30 min at room temperature with inversion every 10 min, then the primary antibody was added directly to each cell tube at the desired concentration and incubated for 1 hr at room temperature inverting every 10 min. Cells were centrifuged at 1,000/5 min, the primary antibody removed and the cells resuspended in 5 mls of 1×PBS. This step was repeated once. Cells were centrifuged at 1,000/5 min and resuspended in 1 ml of 1×PBS w/1% BSA and 0.02% NaN3 (that contains 5% serum) and the secondary antibody was added. Tubes were protected from the light and incubated for 1 hr at room temperature inverting every 10 min. Cells were then centrifuged at 1,000/5 min, the secondary antibody removed and the cells resuspended in 5 mls of 1×PBS. This step was repeated once and then the cells were centrifuged at 1,000/5 min and resuspended in 1 ml of 1×PBS w/1% BSA and 0.02% NaN3 (with the 5% serum added). Tubes were kept on ice until needed for flow cytometry.

[12] = system: Pgp expression in LS180 colon cancer cells; assay: Pgp expression in LS180 colon cancer cells, flow cytometry; assay type: cell-based
Description: as §1
(§2) In view of the key role of the Pgp170 and MRP-1 proteins in MDR, the effect of the PKI compounds on expression of these proteins in LS180 colon cancer cells and H-661 NSCLC cells was investigated. Cells were exposed to doxorubicin (50 ng/mL) for 3 days prior to exogenous treatment with the PKI compounds at a concentration of 5 μM. Results were acquired by flow cytometry, conducted as outlined in Example 17 above, after labelling of the cells with the appropriate antibody (either P-gp #sc 1517 or MRP-1 #sc 7774). The number of cells individually analysed amounted to approximately 50,000 with a statistical error of about 0.08%.
(§3) The increase in the expression of P-gp and MRP-1 was assessed by comparing the % of cells expressing the protein in question in the presence and absence of doxorubicin (i.e. the ratio A/B in the Tables).

[13] = system: MRP-1 expression in LS180 colon cancer cells; assay: MRP-1 expression in LS180 colon cancer cells, flow cytometry; assay type: cell-based
Description: as §1, §2, §3

[14] = system: Pgp expression in H-661 NSCLC cells; assay: Pgp expression in H-661 NSCLC cells, flow cytometry; assay type: cell-based
Description: as §1, §2, §3

[15] = system: MRP-1 expression in H-661 NSCLC cells; assay: MRP-1 expression in H-661 NSCLC cells, flow cytometry; assay type: cell-based
Description: as §1, §2, §3

LS180 colon cancer cells = assay: Rhodamine influx and efflux in LS180 colon cancer cells; assay type: cell-based; details: exogenous treatment, doxorubicin exposure
Description: The amount of rhodamine influx and efflux following treatment of LS180 colon cancer cells and H-661 NSCLC cells with the PKI compounds was also investigated. The measurement of rhodamine efflux and influx is a common procedure that provides a quantitative estimation of the level of multidrug resistance due to typical MDR and non-P-gp MDR. Both exogenous treatment using 5 μg/mL of the PKI compounds provided at the same time as doxorubicin, and endogenous incorporation, in which a single dose of 5 mM was used with the standard pinocytic endocytosis protocol, were investigated.
The MDR-1 pump functions only as an efflux pump, however, it modulates the cell entry of rhodamine (that can diffuse through the membrane). Upon toxicant exposure, rhodamine accumulates in the cells. Ratios of rhodamine fluorescence in doxorubicin exposed versus untreated controls (CT) are lower if the pump is inhibited.

CC(=O)N[C@@H](CCCCN)C(=O)N[C@@H](Cc1ccccc1)C(=O)N[C@@H](CCCNC(=N)N)C(=O)N[C@@H](CCCNC(=N)N)C(=O)N[C@@H](CCCCNC(=O)CN(CCN)C(=O)Cn1cnc2c(N)ncnc21)C(=O)N[C@@H](CC(C)C)C(=O)N[C@@H](CCCNC(=N)N)C(=O)N[C@@H](CC(C)C)C(=O)N[C@@H](CCC(=O)O)C(=O)N[C@H](C(=O)N[C@@H](CC(=O)O)C(N)=O)C(C)C [Compound 6] (Ac-KFRRK(PNA(A))LRLEVD-NH2)
Anti-Serine Antibody FL Density (STAT-3; pSTAT3 Ser727, control 70.15): 115.77
Anti-Tyrosine Antibody FL Density (STAT-3; pSTAT3 Tyr 705, control 43): 42.49
pERK1/2 FL Density (pERK1/2): 93.5
Bcl2 label intensity, Perinuclear (Bcl-2; control 0): 2
Bcl2 label intensity, Cytoplasmic (Bcl-2; control 1): 2
Bcl2 label intensity, Nuclear (Bcl-2; control 2): 1
Percentage Cell Death at 24 h, H661 ([1]; 5 mM): 21%
Percentage Cell Death at 24 h, H661 ([1]; 10 mM): 25%
Percentage Cell Death at 24 h, MCF-7 ([2]; 5 mM): 19%
Percentage Cell Death at 24 h, MCF-7 ([2]; 10 mM): 39%
Percentage Cell Death at 24 h, MDA-MB-231 ([3]; 5 mM): 3%
Percentage Cell Death at 24 h, MDA-MB-231 ([3]; 10 mM): 19%
Percentage Cell Death at 24 h, SKOV-3 ([4]; 5 mM): 29%
Percentage Cell Death at 24 h, SKOV-3 ([4]; 10 mM): 29%
Percentage Cell Death at 24 h, LnCAP ([5]; 5 mM): 15%
Percentage Cell Death at 24 h, LnCAP ([5]; 10 mM): 17%
Percentage Cell Death at 24 h, Du145 ([6]; 5 mM): 22%
Percentage Cell Death at 24 h, Du145 ([6]; 10 mM): 28%
Percentage Cell Death at 24 h, T24 ([7]; 5 mM): 35%
Percentage Cell Death at 24 h, T24 ([7]; 10 mM): 42%
Percentage Cell Death at 24 h, IMR32 ([8]; 5 mM): 2%
Percentage Cell Death at 24 h, IMR32 ([8]; 10 mM): 14%
Percentage Cell Death at 24 h, LS180 ([9]; 5 mM): 30%
Percentage Cell Death at 24 h, LS180 ([9]; 10 mM): 58%
cell death induced in colon cancer cell line LS-180 ([9]; short term, 24 h): very sensitive to cell death
Percentage Cell Death at 24 h, U251 ([10]; 5 mM): 6%
Percentage Cell Death at 24 h, U251 ([10]; 10 mM): 16%
% Inhibition of Invasion (MDA-MB-231 cells; % invasion in control cells minus % invasion in treated cells): 8.2%
% Invasion (MDA-MB-231 cells; MDA-MB-231): 28.0%
No. Cells Invading Matrigel Insert (MDA-MB-231 cells; MDA-MB-231): 50.3
No. Cells Migrating through Control Insert (MDA-MB-231 cells; MDA-MB-231): 179.33
expression of PKCα, without doxorubicin [11]: did not have any effect
Cells expressing Pgp, +Doxorubicin (A) ([12]; compound 5 μM): 13.2% and 19.12%
Cells expressing Pgp, No Doxorubicin (B) ([12]; compound 5 μM): 2.73% and 8.55%
P-gp basal expression ([12]; without doxorubicin): equal or close to basal expression
Cells expressing MRP-1, +Doxorubicin (A) ([13]; compound 5 μM): 10.7% and 12.33%
Cells expressing MRP-1, No Doxorubicin (B) ([13]; compound 5 μM): 3.55% and 8.88%
basal expression of MRP-1 ([13]; without doxorubicin): did not alter the basal expression of MRP-1
Cells expressing Pgp, +Doxorubicin (A) ([14]; compound 5 μM): 35.65% and 52.45%
Cells expressing Pgp, No Doxorubicin (B) ([14]; compound 5 μM): 1.61% and 1.06%
basal expression of P-gp ([14]; without doxorubicin): decreased the basal expression of P-gp
MRP-1 expression ([15]; cells exposed to doxorubicin): values similar to that of controls
Cells expressing MRP-1, +Doxorubicin (A) ([15]; compound 5 μM): 38.07% and 61.2%
Cells expressing MRP-1, No Doxorubicin (B) ([15]; compound 5 μM): 3.34% and 1.17%
MRP-1 expression ([15]; without doxorubicin): decreased MRP-1 expression
rhodamine efflux, pump activity (LS180 colon cancer cells): effective in limiting the pump activity
